Like-named read-outs stand apart in the source and are kept apart here. No constants are given. Whether binding was seen depends on the method and setting. For part of these data: Binding seen in cells or lysates may run through a third protein. Some binding calls cover weakened binding; strength is not graded here. For part of these data: Sequences can lack the tags named with a protein.

The chains behind the UniProt entries cited, without tags or fusion partners.
UniProt A0A7G3WX95: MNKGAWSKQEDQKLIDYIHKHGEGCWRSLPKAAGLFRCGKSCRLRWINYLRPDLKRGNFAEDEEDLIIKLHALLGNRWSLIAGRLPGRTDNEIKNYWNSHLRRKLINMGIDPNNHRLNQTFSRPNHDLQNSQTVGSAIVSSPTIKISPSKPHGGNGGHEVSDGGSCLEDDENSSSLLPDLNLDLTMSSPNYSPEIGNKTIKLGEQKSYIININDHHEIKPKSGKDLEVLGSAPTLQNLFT

Assay [1] deals with CLuc-bHLH3 (Morus alba L. cv. Hongguo2). The assay can be described thus: split reporter; split luciferase complementation in Nicotiana benthamiana leaves (pCambia1300nLUC / pCambia1300cLUC), firefly luciferase activity 3 days after infiltration.
Assay [2] concerns the target T1, CLuc-GL3 (Morus alba L. cv. Hongguo2).
T1 sequence: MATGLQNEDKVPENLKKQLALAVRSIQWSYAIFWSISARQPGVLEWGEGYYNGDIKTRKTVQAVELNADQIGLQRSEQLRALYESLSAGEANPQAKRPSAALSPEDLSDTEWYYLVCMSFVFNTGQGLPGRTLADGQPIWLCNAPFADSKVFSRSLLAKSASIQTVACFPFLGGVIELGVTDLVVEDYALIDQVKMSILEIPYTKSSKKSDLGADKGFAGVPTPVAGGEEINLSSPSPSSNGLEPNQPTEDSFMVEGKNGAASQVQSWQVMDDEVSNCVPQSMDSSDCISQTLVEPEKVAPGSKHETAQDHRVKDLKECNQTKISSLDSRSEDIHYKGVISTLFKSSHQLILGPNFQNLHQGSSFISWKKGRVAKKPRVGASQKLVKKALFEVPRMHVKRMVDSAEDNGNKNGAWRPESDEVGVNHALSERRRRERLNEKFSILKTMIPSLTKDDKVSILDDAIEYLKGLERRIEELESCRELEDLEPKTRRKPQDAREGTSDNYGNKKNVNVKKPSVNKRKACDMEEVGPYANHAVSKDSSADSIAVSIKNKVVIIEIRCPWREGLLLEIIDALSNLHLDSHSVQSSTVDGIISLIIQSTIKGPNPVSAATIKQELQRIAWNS
The assay is described as above.

The target of assay [3] is T2, TTG1 in pCambia1300cLUC (CLuc-TTG1) (Morus alba L. cv. Hongguo2).
T2 sequence: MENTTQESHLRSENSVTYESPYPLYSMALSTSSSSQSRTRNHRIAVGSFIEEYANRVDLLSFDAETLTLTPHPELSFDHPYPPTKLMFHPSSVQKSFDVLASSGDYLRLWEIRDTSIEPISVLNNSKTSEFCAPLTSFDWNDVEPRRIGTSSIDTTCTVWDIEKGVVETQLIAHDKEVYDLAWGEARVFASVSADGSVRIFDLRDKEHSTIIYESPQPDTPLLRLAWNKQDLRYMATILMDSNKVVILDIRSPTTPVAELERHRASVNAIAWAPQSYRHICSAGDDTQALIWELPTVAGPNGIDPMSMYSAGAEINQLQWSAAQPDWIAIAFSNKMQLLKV
The assay is described as above.

Assay [4] addresses T3, TTG1 in pBridge MCS I (yeast three-hybrid bait) (Morus alba L. cv. Hongguo2).
T3 sequence: T2 sequence
The assay can be described thus: yeast three-hybrid; Y2HGold; TTG1 in pBridge MCS I, GL3 in pBridge MCS II, MYB in pGADT7; SC-Leu-Trp-Met-His medium with 0 and 30 mM 3-AT.

The target is the same in assay [5]. The assay can be described thus: yeast three-hybrid; Y2HGold; TTG1 in pBridge MCS I, bHLH3 in pBridge MCS II, MYB in pGADT7; SC-Leu-Trp-Met-His medium with 0 and 30 mM 3-AT.
Assay [6] has as its target T4, TTG1 (yeast two-hybrid fusion) (Morus alba L. cv. Hongguo2).
T4 sequence: T2 sequence
Description: two-hybrid; yeast two-hybrid with pGADT7 and pGBKT7 fusions; SD-Trp-Leu-His-Ade+(X-a-Gal) medium.

For assay [7], the target named is T5, GL3 (yeast two-hybrid fusion) (Morus alba L. cv. Hongguo2).
T5 sequence: T1 sequence
The description is as above.

The target of assay [8] is bHLH3 (yeast two-hybrid fusion) (Morus alba L. cv. Hongguo2). Described as above.
Assay [9] concerns the target T4, TTG1 (yeast two-hybrid fusion) (Morus alba L. cv. Hongguo2). The assay is described as above. The source holds these as a separate data set.
In assay [10] the target is T5, GL3 (yeast two-hybrid fusion) (Morus alba L. cv. Hongguo2). The description is as above. This is another data set of the same source.
In assay [11] the target is bHLH3 (yeast two-hybrid fusion) (Morus alba L. cv. Hongguo2). Described as above. This is another data set of the same source.
Assay [12] addresses T3, TTG1 in pBridge MCS I (yeast three-hybrid bait) (Morus alba L. cv. Hongguo2). The assay can be described thus: yeast three-hybrid; Y2HGold; TTG1 in pBridge MCS I, GL3 in pBridge MCS II, MYB in pGADT7; SC-Leu-Trp-Met-His medium with 0 and 30 mM 3-AT. This is another data set of the same source.
Assay [13] concerns the target T6, TTG1-NLuc (Morus alba L. cv. Hongguo2).
T6 sequence: T2 sequence
Description: split reporter; split luciferase complementation in Nicotiana benthamiana leaves (pCambia1300nLUC / pCambia1300cLUC), firefly luciferase activity 3 days after infiltration.

Regarding “MYB4-NLuc (from UniProt A0A7G3WX95 1-240)”, the binding result in assay [1], in assay [2] and in [3] was “binds” each time.
Take “MYB4 (yeast two-hybrid fusion) (from UniProt A0A7G3WX95 1-240)”: the binding result in assay [4], in assay [5], in assay [6], in [7] and in [8] was “binds” each time.

B1: TT2L3 (yeast two-hybrid fusion) (protein, UniProt A0A7G3WX90 1-238)
chain: MGERRPRISGGSDEGSSRRWTAMEDKTLTEYIRINGERQWNCLPQNAGLKKSGRSCRLRWLNYLKPGIKRGNISQKEEDTIIRLHKNLGNRWSVIAGLLPGRTDNEIKNYWNTKISKKIKEDDCKADSTTSSDPKPSIGHESLEVPNLTTKQQLGLCEVPQTSLNESDETSIPSPEEARMELEDDPVAAQPRDIYGVVHEHFETILSPVRICEDKWQLMHDDVWMDFEIWNTFPDQQY
With B1, the binding entry in assay [9], in assay [10] and in assay [11] was “no binding” each time.

B2: MYBA (yeast two-hybrid fusion) (protein, UniProt A0A7G3WX87 1-311)
chain: MQTEGCSSTGGVRKGAWTREEDILLKKCIDKYGEGKWQLVPSRAGLNRCRKSCRLRWMNYLKPDVKRGEFTVDEVDLILRLHKLLGNRWALIAGRIPGRTANDVKNYWNTHLRKKVALFPHDKNTKNTNNDIIAKSKVFRPRPRTPKTQPSLTNKNNSASSTTNFAAISINIQPTDDGNNNNNNNINYNNNNNNEPVIPVLEDSKYWWESLLDDITSDEGVANSVSSTGLLDHGQPNNGNIANFLSELEADQPALSISPWPTDVTDSATSTCVNLVEDDYGHQNSWTDFIMDMDVELWGLPSKDQGNAEMQ
As for B2, the binding result in [12], in [5], in assay [9], in assay [10] and in assay [11] was “binds” each time.

B3: CLuc-GL3 (protein, UniProt A0A7G3WX92 1-624)
chain: T1 sequence
With B3, in assay [13], the binding result is given as “binds”.

B4: GL3 in pBridge MCS II (yeast three-hybrid bridge) (protein, UniProt A0A7G3WX92 1-624)
chain: T1 sequence
Consider B4, for which the binding entry in assay [12] is given as “binds”.

For the origin of these results see publication PMC7261776.
